{"source": "patent US5464820A", "about": "“Specific inhibitors of tissue kallikrein” (priority 1993, dated 1995)", "key": {"[1]": {"molecular_target": "porcine pancreatic kallikrein (PPK) (Sus scrofa, UniProt P00752)", "sequence (P00752 8-87 limits assumed)": "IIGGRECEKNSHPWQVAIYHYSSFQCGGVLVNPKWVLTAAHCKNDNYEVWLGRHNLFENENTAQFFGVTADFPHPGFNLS", "sequence (P00752 95-246 limits assumed)": "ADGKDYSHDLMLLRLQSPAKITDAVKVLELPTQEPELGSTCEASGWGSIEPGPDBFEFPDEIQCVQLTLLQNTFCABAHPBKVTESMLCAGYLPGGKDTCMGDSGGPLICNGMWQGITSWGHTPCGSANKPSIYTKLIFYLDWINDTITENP", "experiment": "Inhibition of porcine pancreatic kallikrein, cleavage of chromogenic substrate S-2266 (KI)", "format": "biochemical", "details": "for log KI: Table 2, P3 substitutions"}, "[2]": {"experiment": "Measured lipophilicity (KO/W)", "format": "physicochemical", "details": "Table 2, measured lipophilicity, change relative to Gly analog", "source_text": "Listed in Table 2 are KI values along with changes in volume (ΔV), measured lipophilicity (ΔKO/W), and calculated lipophilicity (ΔCLOGP). Some of the substrates containing a D-amino acid residue at P3 are rapidly hydrolyzed by tissue kallikrein. To overcome this problem, a new method was also used to determine KI (see Example 6)."}, "[3]": {"molecular_target": "human plasma kallikrein (HPK) (Homo sapiens, UniProt P03952)", "sequence (P03952 20-638)": "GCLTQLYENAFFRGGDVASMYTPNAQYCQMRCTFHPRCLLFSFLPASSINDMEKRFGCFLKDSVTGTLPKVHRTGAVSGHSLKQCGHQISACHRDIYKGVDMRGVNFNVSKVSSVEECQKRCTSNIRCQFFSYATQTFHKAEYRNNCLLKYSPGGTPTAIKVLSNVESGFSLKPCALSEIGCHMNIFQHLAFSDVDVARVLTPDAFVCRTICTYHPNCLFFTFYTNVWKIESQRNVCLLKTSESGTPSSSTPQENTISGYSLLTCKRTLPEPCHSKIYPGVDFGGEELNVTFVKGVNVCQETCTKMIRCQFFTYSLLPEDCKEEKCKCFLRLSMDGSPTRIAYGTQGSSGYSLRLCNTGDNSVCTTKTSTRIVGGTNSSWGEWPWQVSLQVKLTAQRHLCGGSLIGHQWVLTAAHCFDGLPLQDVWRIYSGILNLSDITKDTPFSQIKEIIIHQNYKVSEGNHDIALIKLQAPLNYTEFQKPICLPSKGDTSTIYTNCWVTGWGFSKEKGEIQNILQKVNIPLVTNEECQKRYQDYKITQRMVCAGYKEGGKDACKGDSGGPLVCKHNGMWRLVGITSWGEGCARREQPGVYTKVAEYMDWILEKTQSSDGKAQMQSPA", "experiment": "Inhibition of human plasma kallikrein (KI)", "format": "biochemical", "source_text": "Assay methods were based on the cleavage of chromogenic substrate S-2266 (D-Val-Leu-Arg-pNA) (Kabi; Charlotte, N.C.) by porcine pancreatic kallikrein (Sigma Chemical Company; St. Louis, Mo.) to yield an increase in absorbance at 405 nm. By changing the substrate and enzyme, the general method has been extended to measure the inhibition of human tissue kallikrein (HTK or human urinary kallikrein HUK), human plasma kallikrein (HPK), plasmin, and urokinase (UK). In all assays, the robot dilutes the inhibitor into a series of wells and adds substrate and buffer. Chromogenic reactions are started by the addition of enzyme. Changes in the absorbance at 405 nm in an array of wells were recorded. All manipulations were performed by the instrument from reservoirs containing substrate, inhibitor, diluent (water), buffer, or enzyme."}}, "note": "Several values for one entry are separate records, joined by “and”; a condition that tells them apart may be missing. Equal values may be shown once. Read-outs that look alike come from different tables or passages of the source. For part of these data: Part of at least one peptide drawing is inferred or uncertain, most often the ends. For part of these data: At least one structure is not confirmed: it was looked up by name or label, or the drawing left a doubt. Starred links: 1 amine or outer side, 2 acyl side, 3 side chain; linkers in the order of their positions; H or OH if unused. Positions of bridges follow the written chain, without caps; N, C: chain ends. Non-standard residues stand in square brackets, D forms with d. Residues, ends and D or L forms follow the SMILES beside them. Chains are numbered I, II in the order given. X3 = O=C([C@H](N[*:1])C12CC3CC(CC(C3)C1)C2)[*:2]; X2 = CCC(CC)[C@@H](N[*:1])C(=O)[*:2]; d(aIle) = CC[C@H](C)[C@@H](N)C(=O)O; hArg = N=C(N)NCCCC[C@H](N)C(=O)O; dChg = N[C@@H](C(=O)O)C1CCCCC1; dTle = CC(C)(C)[C@@H](N)C(=O)O; Sec = N[C@@H](C[SeH])C(=O)O; dAbu = CC[C@@H](N)C(=O)O"}
{"smiles": "COC(=O)C(=O)[C@H](Cc1ccc(N)cc1)NC(=O)[C@@H]1CCCN1", "note": "[KITDS-3, Pro-Phe(4NH2)-CO-COOCH3]", "values": [{"measurement": "Ki", "setting": "[1]; Table 7, read-out: K1 PPK", "value": 0.018, "unit": "mM"}]}
{"smiles": "COC(=O)C(O)[C@H](Cc1ccc(N)cc1)NC(=O)[C@@H]1CCCN1", "note": "(stereo partly drawn) [KITDS-5, Pro-Phe(4NH2)-COH-COOCH3]", "values": [{"measurement": "Ki", "setting": "[1]; Table 7, in mM, read-out: K1 PPK", "value": "> 5", "unit": "mM"}]}
{"smiles": "CC(C)[C@H](NC(=O)[C@H](CO)NC(=O)[C@H](CCCNC(=N)N)NC(=O)[C@H](Cc1ccccc1)NC(=O)CN)C(=O)N[C@@H](CCC(N)=O)C(N)=O", "note": "[KKI-80, Gly-Phe-Arg-Ser-Val-Gln] (H-GFRSVQ-NH2)", "values": [{"measurement": "ΔLog KO/W", "setting": "[2]", "value": 0.00}]}
{"smiles": "CC(C)[C@H](NC(=O)[C@H](CO)NC(=O)[C@H](CCCNC(=N)N)NC(=O)[C@H](Cc1ccccc1)NC(=O)[C@@H](C)N)C(=O)N[C@@H](CCC(N)=O)C(N)=O", "note": "[KKI-81, [D-Ala]-Phe-Arg-Ser-Val-Gln] (H-[dA]FRSVQ-NH2)", "values": [{"measurement": "ΔLog KO/W", "setting": "[2]", "value": 0.04}]}
{"smiles": "CC[C@@H](N)C(=O)N[C@@H](Cc1ccccc1)C(=O)N[C@@H](CCCNC(=N)N)C(=O)N[C@@H](CO)C(=O)N[C@H](C(=O)N[C@@H](CCC(N)=O)C(N)=O)C(C)C", "note": "[KKI-82, [D-Aab]-Phe-Arg-Ser-Val-Gln] (H-[dAbu]FRSVQ-NH2)", "values": [{"measurement": "ΔLog KO/W", "setting": "[2]", "value": 0.01}]}
{"smiles": "CC(C)[C@H](NC(=O)[C@H](CO)NC(=O)[C@H](CCCNC(=N)N)NC(=O)[C@H](Cc1ccccc1)NC(=O)[C@H](N)C(C)C)C(=O)N[C@@H](CCC(N)=O)C(N)=O", "note": "[KKI-83, [D-Val]-Phe-Arg-Ser-Val-Gln] (H-[dV]FRSVQ-NH2)", "values": [{"measurement": "ΔLog KO/W", "setting": "[2]", "value": 0.10}]}
{"smiles": "CC(C)[C@H](NC(=O)[C@H](CO)NC(=O)[C@H](CCCNC(=N)N)NC(=O)[C@H](Cc1ccccc1)NC(=O)[C@H](N)C(C)(C)C)C(=O)N[C@@H](CCC(N)=O)C(N)=O", "note": "[KKI-84, [D-t-BuGly]-Phe-Arg-Ser-Val-Gln] (H-[dTle]FRSVQ-NH2)", "values": [{"measurement": "ΔLog KO/W", "setting": "[2]", "value": 0.86}]}
{"smiles": "CC[C@@H](C)[C@@H](N)C(=O)N[C@@H](Cc1ccccc1)C(=O)N[C@@H](CCCNC(=N)N)C(=O)N[C@@H](CO)C(=O)N[C@H](C(=O)N[C@@H](CCC(N)=O)C(N)=O)C(C)C", "note": "[KKI-85, [D-Ile]-Phe-Arg-Ser-Val-Gln] (H-[dI]FRSVQ-NH2)", "values": [{"measurement": "ΔLog KO/W", "setting": "[2]", "value": 0.33}, {"measurement": "binds to β-PPK better than platform peptide KKI-90", "setting": "[1]; KI ratio vs KKI-90", "value": "about 3 fold"}, {"measurement": "difference in binding energy (ΔΔG) between D-Ile and Pro at P3", "setting": "[1]; KKI-85 vs KKI-90", "value": -666, "unit": "cal mol^-"}]}
{"smiles": "CC(C)[C@H](NC(=O)[C@H](CO)NC(=O)[C@H](CCCNC(=N)N)NC(=O)[C@H](Cc1ccccc1)NC(=O)[C@H](N)C1CCCCC1)C(=O)N[C@@H](CCC(N)=O)C(=O)O", "note": "[KKI-86, [D-Chg]-Phe-Arg-Ser-Val-Gln] (H-[dChg]FRSVQ-OH)", "values": [{"measurement": "ΔLog KO/W", "setting": "[2]", "value": 0.58}, {"measurement": "log KI", "setting": "[1]", "value": 4.08}]}
{"smiles": "CCC(CC)[C@@H](N)C(=O)N[C@@H](Cc1ccccc1)C(=O)N[C@@H](CCCNC(=N)N)C(=O)N[C@@H](CO)C(=O)N[C@H](C(=O)N[C@@H](CCC(N)=O)C(N)=O)C(C)C", "note": "[KKI-87, [D-Ile(4Me)]-Phe-Arg-Ser-Val-Gln] (H-[X2]FRSVQ-NH2; N-terminus assumed)", "values": [{"measurement": "log KI", "setting": "[1]", "value": 3.85}]}
{"smiles": "CC(C)[C@H](NC(=O)[C@H](CO)NC(=O)[C@H](CCCNC(=N)N)NC(=O)[C@H](Cc1ccccc1)NC(=O)[C@H](N)C12CC3CC(CC(C3)C1)C2)C(=O)N[C@@H](CCC(N)=O)C(N)=O", "note": "[KKI-88, [D-Adg]-Phe-Arg-Ser-Val-Gln] (H-[X3]FRSVQ-NH2; N-terminus assumed)", "values": [{"measurement": "log KI", "setting": "[1]", "value": 4.30}]}
{"smiles": "CC[C@H](C)[C@@H](N)C(=O)N[C@@H](Cc1ccccc1)C(=O)N[C@@H](CCCNC(=N)N)C(=O)N[C@@H](CO)C(=O)N[C@H](C(=O)N[C@@H](CCC(N)=O)C(N)=O)C(C)C", "note": "[KKI-105] (H-[d(aIle)]FRSVQ-NH2)", "values": [{"measurement": "ΔLog KO/W", "setting": "[2]", "value": 0.15}]}
{"smiles": "CC(C)[C@H](NC(=O)[C@H](C[Se][Se]C[C@H](NC(=O)[C@H](CCCNC(=N)N)NC(=O)[C@H](Cc1ccccc1)NC(=O)[C@@H]1CCCN1)C(=O)N[C@H](C(=O)N[C@@H](CCC(N)=O)C(N)=O)C(C)C)NC(=O)[C@H](CCCNC(=N)N)NC(=O)[C@H](Cc1ccccc1)NC(=O)[C@@H]1CCCN1)C(=O)N[C@@H](CCC(N)=O)C(N)=O", "note": "[Secys2] (I: H-PFR[Sec]VQ-NH2 / II: H-PFR[Sec]VQ-NH2; diselenide I:4-II:4; N-terminus assumed)", "values": [{"measurement": "Ki", "setting": "[3]; Table 5, Pro-Phe-Arg-X-Val-Gln, read-out: KI HPK", "value": 1170, "unit": "µM"}, {"measurement": "Ki", "setting": "[1]; Table 5, Pro-Phe-Arg-X-Val-Gln, read-out: KI PPK", "value": "0.024 mM and 0.029 mM and 0.046 mM"}]}
{"smiles": "CC(C)[C@H](N)C(=O)N[C@@H](Cc1ccccc1)C(=O)N[C@@H](CCCNC(=N)N)C(=O)N[C@@H](CC(N)=O)C(=O)N[C@@H](CCCCNC(=N)N)C(=O)N[C@@H](CCC(N)=O)C(N)=O", "note": "[Val-phe-Arg-Asn-hArg-Gln] (H-VFRN[hArg]Q-NH2; N-terminus assumed)", "values": [{"measurement": "Ki", "setting": "[3]; Table 6, HUK, read-out: KI HUK", "value": 371, "unit": "µM"}]}
